# In PMC4336329 (PLoS ONE, 2015):
# Screen size: about 310,000 compounds; about 2,200 (0.71%) showed an effect of 50% or more. Effects have a minus sign here. The list shows a part of the results.
# Target: human ether-à-go-go-related gene (hERG) potassium channel (human, UniProt Q12809)
# Assay: primary screen, population patch clamp on CHO cells stably expressing hERG
# human ether-à-go-go-related gene (hERG) potassium channel, sequence (Q12809 whole entry, looked up): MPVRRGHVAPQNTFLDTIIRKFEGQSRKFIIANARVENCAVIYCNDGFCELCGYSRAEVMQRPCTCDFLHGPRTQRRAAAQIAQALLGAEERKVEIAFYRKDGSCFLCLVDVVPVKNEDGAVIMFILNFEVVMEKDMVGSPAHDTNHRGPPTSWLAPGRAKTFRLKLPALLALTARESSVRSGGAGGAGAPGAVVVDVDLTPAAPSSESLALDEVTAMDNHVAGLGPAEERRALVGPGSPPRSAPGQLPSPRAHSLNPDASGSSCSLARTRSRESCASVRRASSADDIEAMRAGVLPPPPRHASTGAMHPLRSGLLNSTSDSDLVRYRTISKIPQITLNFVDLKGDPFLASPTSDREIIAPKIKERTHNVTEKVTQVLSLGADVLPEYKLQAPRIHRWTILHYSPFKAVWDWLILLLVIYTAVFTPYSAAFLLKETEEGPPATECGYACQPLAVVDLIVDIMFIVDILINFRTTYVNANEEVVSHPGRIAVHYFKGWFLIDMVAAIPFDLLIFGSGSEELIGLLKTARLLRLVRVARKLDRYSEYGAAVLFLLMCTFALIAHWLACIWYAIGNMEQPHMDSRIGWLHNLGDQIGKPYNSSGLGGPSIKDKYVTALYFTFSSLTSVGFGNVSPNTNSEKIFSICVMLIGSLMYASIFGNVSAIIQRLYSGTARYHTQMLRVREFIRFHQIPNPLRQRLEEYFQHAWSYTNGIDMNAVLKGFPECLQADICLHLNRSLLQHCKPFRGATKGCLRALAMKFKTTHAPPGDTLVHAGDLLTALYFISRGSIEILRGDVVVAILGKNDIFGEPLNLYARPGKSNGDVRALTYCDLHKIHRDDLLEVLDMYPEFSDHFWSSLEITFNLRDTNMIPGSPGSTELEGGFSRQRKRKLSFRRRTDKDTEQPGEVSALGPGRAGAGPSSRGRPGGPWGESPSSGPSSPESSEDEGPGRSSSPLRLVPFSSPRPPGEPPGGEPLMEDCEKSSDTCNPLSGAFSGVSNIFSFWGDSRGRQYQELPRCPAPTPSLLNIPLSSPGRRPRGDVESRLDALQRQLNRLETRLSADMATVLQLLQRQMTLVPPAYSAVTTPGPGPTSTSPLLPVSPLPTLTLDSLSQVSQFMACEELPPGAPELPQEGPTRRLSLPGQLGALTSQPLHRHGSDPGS
row,SMILES,"hERG current change (%, negative = inhibition) at 1uM [%]"
1,CCOC(=O)C1=C(CN2CC(C)CC(C)C2)NC(=O)NC1c1ccc2c(c1)OCO2 (centres unmarked),-2.2
2,COc1cccc(-c2nnc(-c3ccccc3NC(=O)c3ccc(C(C)(C)C)cc3)o2)c1,-18.3
3,COc1cc(/C=N/NC(=O)c2cccnc2)ccc1OCC(=O)N1CCOCC1,11.8
4,CCC(c1nnnn1CS(=O)(=O)c1ccc(C)cc1)N1CCC(C(N)=O)CC1.Cl (centres unmarked),-3.7
5,CCOc1ccc(CNC(=O)C2CCN(c3nnc(C)c4c(C)n(-c5ccc(C)cc5)nc34)CC2)cc1,14.6
6,Clc1ncccc1-c1nc2ccccc2s1,12.9
7,CN(/C=C1/C(=O)CNC1=O)CCO,9.91
8,CCOc1ccccc1N1CCN(C(=O)NCc2ccc(C)cc2)CC1,16.2
9,CCOC(=O)C1=C(c2ccccc2)N=c2s/c(=C\c3ccc(O)cc3)c(=O)n2C1c1cccs1 (centres unmarked),8.91
10,CCN(CC)S(=O)(=O)c1cc(C(=O)NCCN2CCOCC2)ccc1Cl.Cl,4.68
11,COc1ccc(C(=O)Nn2cnc3scc(-c4cccs4)c3c2=O)c(O)c1,-1.01
12,CC1=C(C(=O)OC2CCCC2)C(c2coc3ccccc3c2=O)C2=C(CCCC2=O)N1 (centres unmarked),10.3
13,CCOc1ccc(C(=O)CC(C(=O)O)N2CCCCC2)cc1 (centres unmarked),11
14,CN(C)Cc1nnnn1-c1ccccc1,6.13
15,N#CC1=C(N)N(c2ccccc2)C2=C(C(=O)CCC2)C1c1cccs1 (centres unmarked),-3.87
16,COc1cccc(CN2CCC(C(=O)N3CCN(c4ccccc4F)CC3)CC2)c1OC.O=C(O)C(=O)O,12.2
17,C=CCSc1nc(C)c(Cc2cccc3ccccc23)c(=O)[nH]1,13.2
18,O=C(O)c1ccc2oc(SCC(=O)N3CCCCC3)nc2c1,-5.99
19,O=C(C1=C[C@H](c2coc3ccccc3c2=O)C[C@H](OCc2ccc(CO)cc2)O1)N1CCN(Cc2ccc3c(c2)OCO3)CC1,-12.8
20,COc1ccccc1-n1cnc2cc(C(=O)NCc3ccco3)ccc21,2.55
21,O=c1[nH]c(=O)n(Cc2ccccc2)c2c1CCC2,13.5
22,O=C(C1CCN(CC2CCCCC2)CC1)N1CCCC1,11.8

row,SMILES,"hERG current change (%, negative = inhibition) at 1uM [%]"
1,Cc1nnc(SCC(=O)N(CC(C)C)c2c(N)n(Cc3ccccc3)c(=O)[nH]c2=O)n1N,10.6
2,Cc1cc(C)nc(/N=C(\N)N2CCCCCC2)n1,6.3
3,O=C(O)CCN1CC2([N+](=O)[O-])C=CC(=O)C([N+](=O)[O-])(C1)C2CC(=O)c1ccccc1 (centres unmarked),16.5
4,C/C(=N\N=C\c1cccc(F)c1)c1nnn(-c2nonc2N)c1C,3.97
5,CC(C)Cn1c(N)c(C(=O)COC(=O)c2ccc(Cl)cc2)c(=O)n(C)c1=O,8.51
6,CC12C(=O)N(c3ccccn3)C(=O)C1C1C=CC2C1 (centres unmarked),13.5
7,O=C(O)c1ccc2c(=O)[nH]c(CCl)nc2c1,-5.77
8,CSc1nccc(-c2nn(-c3ccc(C)cc3)ccc2=O)n1,0.262
9,Cc1cc(C)n2nc(C(=O)OCC(=O)Nc3ccc4c(c3)OC(F)(F)O4)nc2n1,-17.3
10,O=C(CNc1ccc(F)cc1F)NC(=O)NCc1ccco1,6.96
11,O=C(CCC(=O)N(CC(=O)NC1CCCCC1)Cc1ccc(F)cc1)Nc1nccs1,11
12,CC(=O)c1ccc(OCc2ccc(C(=O)c3ccccc3)cc2)cc1,12
13,CC(=O)c1cccc(NC(=O)c2sc(Cl)nc2C)c1,24.2
14,O=C(COC(=O)CSc1ccccc1)NCCNC(=O)COC(=O)CSc1ccccc1,6.27
15,COc1ccc(-c2nnc(SCCc3ccccc3)n2N)cc1,11.6
16,CCN(CC(=O)Nc1c(F)cccc1F)C(=O)CC1CCCC1,3.06
17,Cc1nc(C(C)N(C)Cc2nc(Cc3ccccc3F)no2)c(C)s1 (centres unmarked),4.48
18,CS(=O)(=O)Nc1ccccc1C(=O)NC1CC2CCC1C2 (centres unmarked),3.55
19,CC(=O)Oc1cccc(C(=O)Nc2ccccc2NC(=O)c2cccc(OC(C)=O)c2)c1,3.04
20,COCc1nc2ccccc2n1Cc1cccc(C)c1,11.6
21,CC12CCC(C)(c3nc4ccccc4nc31)C2(C)C,10.6
22,Cc1ccc(C(=O)N2CCN(CCNC(=O)C(=O)NC(C)C)CC2)cc1,7.95
